# About 5,000 (1.2%) of roughly 410,000 compounds were called active. Inconclusive results, whose numbers are uncertain, are shown with a selection of clear calls. Calls follow the shape of the dose curve; as a rule, active = well fitted inhibition curve with a large enough effect; inconclusive = small, poorly fitted or top-dose-only effect; inactive = no such curve, though single readings can be large or run the other way. Where the call is inconclusive, the potency comes from a doubtful curve fit.
# Test: qHTS for Inhibitors of TGF-b; also: nearly all actives have a fitted effect of over 65% in size
# Conditions: HepG2 CAGA-GFP TGF-b/SMAD3 reporter, GFP fluorescence, 18 h, TGF-beta stimulated, 500 pg/mL final; series mostly up to 46.1 µM; activity, negative = inhibition: at the top concentration
# Method in brief: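 Inhibition was scored as loss of TGF-beta-induced (500 pg/mL final, 18 hours, 37 degrees C) GFP in HEPG2 cells carrying a CAGA-GFP reporter, in DMEM with 1% FBS. Well GFP was summed per cell; Activity was normalised to unstimulated and stimulated DMSO wells, then concentration-response fitting.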
# % is scaled to controls: 0 for no effect and ±100 for the full control effect; potency is read from the fitted curve at half-maximal effect; tags tell the direction and shape of the fitted curve.
SMILES,Potency,"activity, negative = inhibition"
CCN(CC)S(=O)(=O)c1ccc2c(c1)N(CC(=O)NCCCN1CCN(c3ccccc3F)CC1)C(=O)CO2,"inconclusive: 3.55 µM [inhibitor, partial curve, poor fit]",–
Oc1cc2c(cc1CN1CCN(c3cccc(C(F)(F)F)c3)CC1)CCC2,–,inactive: 4.59%
COC(=O)c1sccc1S(=O)(=O)N1CCN(c2ccccc2)CC1,–,inactive: 0%
COc1cccc(CNC(=O)CCCNC(=O)c2ccc(Cl)cc2)c1,–,inactive: 55.4%
CC(=O)c1cc(O)c2ccccc2c1O,"inconclusive: 35.5 µM [inhibitor, single point]",–
CCN(CC)C(=O)CC(c1ccc(OC)cc1)c1c(OC)cc(OC)c2c(-c3ccccc3)cc(=O)oc12 (stereo not given),"inconclusive: 17.8 µM [inhibitor, single point]",–
O=CN(CCNc1ccccc1)c1ccccc1,"inconclusive: 11.2 µM [inhibitor, partial curve, poor fit]",–
COc1ccc(Cc2nnc(SCC(=O)Nc3ccc(C)cc3C)[nH]c2=O)cc1,–,inactive: -3.35%
Oc1[nH]c2ccccc2c1N=Nc1ccc(C(F)(F)F)cn1,–,inactive: 8.56%
C#CCOCCOCCOCCNc1nc(N2CCOCC2)nc(N2CCN(C(=O)[C@H](CCCCN)n3cc(CCCC)nn3)CC2)n1,–,inactive: 5%
COC(=O)[C@H](Cc1ccccc1)NC(=O)NCc1ccccc1,"inconclusive: 28.2 µM [inhibitor, single point]",–
CCOc1ccc(-n2c(Cc3ccccc3)nnc2SCc2nc(-c3ccccc3OC)no2)cc1,"inconclusive: 35.5 µM [inhibitor, single point]",–
Cc1cc(C)c(NC(=O)C2CCN(c3nc4ccccc4[nH]3)CC2)c(C)c1,–,inactive: -26.2%
CN(c1ccccc1)S(=O)(=O)c1cccc(NC(=O)c2ccc(Cl)c([N+](=O)[O-])c2)c1,"inconclusive: 20 µM [inhibitor, partial curve, poor fit]",–
CC(C)Cn1c(O)c(/C=C2\C=NN=C2c2ccccc2)sc1=S,"inconclusive: 31.6 µM [inhibitor, single point]",–
Cc1ccc(C)c(-c2ccc(=O)n(Cc3cccc(Br)c3)n2)c1,"inconclusive: 11.2 µM [inhibitor, partial curve, poor fit]",–
Cc1ccc(Cl)cc1N1CCN(C(=O)c2cnc(N3CCOCC3)c3ccccc23)CC1,"inconclusive: 35.5 µM [inhibitor, single point]",–
COc1ccccc1-c1nc2c(c(SCc3cccc(Cl)c3)n1)Cc1c(CO)cnc(C)c1O2,–,inactive: -6.96%
COc1ccccc1CCNC(=O)CCSc1nc(-c2ccco2)cc(C(F)(F)F)n1,"inconclusive: 14.1 µM [inhibitor, single point]",–
CCc1ccc(C2c3c(-c4ccccc4O)n[nH]c3C(=O)N2Cc2ccncc2)cc1 (stereo not given),"inconclusive: 35.5 µM [inhibitor, partial curve, poor fit]",–
Cc1cn2c(=O)cc(COC(=O)c3cccc(NC(=O)COc4ccccc4Cl)c3)nc2s1,–,inactive: 14%
COc1cc(OC)cc(C(=O)Oc2c(Sc3ccccc3)c(C)nn2C(C)(C)C)c1,"inconclusive: 0.562 µM [inhibitor, full curve, poor fit]",–

SMILES,Potency,"activity, negative = inhibition"
CCC1=Nc2cc(C(=O)NCC3CCCO3)ccc2Sc2ccc(Br)cc21 (stereo not given),active: 11.2 µM,–
CC1=CC(C)(C)Nc2ccc(OC(=O)CCN3C(=O)c4ccccc4C3=O)cc21,"inconclusive: 35.5 µM [inhibitor, single point]",–
CC(C)CCNC(=O)CCCN1C(=O)c2ccccc2Sc2ncccc21,"inconclusive: 35.5 µM [inhibitor, single point]",–
O=C(c1ccc(C(F)(F)F)cc1)N1CCC(=O)N(C(COCc2ccc(Cl)cc2)Cc2ccccc2)CC1 (stereo not given),"inconclusive: 35.5 µM [inhibitor, single point]",–
COc1cc(-c2noc(CN3CCN(c4ccccc4)CC3)n2)cc(OC)c1OC,"inconclusive: 35.5 µM [inhibitor, single point]",–
COc1cccc(S(=O)(=O)Nc2cccnc2)c1,"inconclusive: 35.5 µM [inhibitor, partial curve, poor fit]",–
CN(/N=C/c1c[nH]c2ccccc12)c1cnn(-c2ccc(F)c(Cl)c2)c(=O)c1Cl,–,inactive: 0.853%
N#Cc1ccccc1OCCCNC1CCCC1,–,inactive: -20.8%
CCOC(=O)c1cc(-c2ccccc2C)nn1Cc1cc(CC)no1,–,inactive: 3.83%
O=C(CCSc1nc(-c2ccco2)cc(C(F)(F)F)n1)Nc1cccc(O)c1,"inconclusive: 10 µM [inhibitor, single point]",–
O=[N+]([O-])c1cccc(S(=O)(=O)N2CCN(c3nc(-c4ccccc4)nc4ccccc34)CC2)c1,–,inactive: 0.877%
O=C(N/N=C/c1c(Cl)nc2ccccn2c1=O)c1cccnc1,"inconclusive: 35.5 µM [inhibitor, partial curve, poor fit]",–
CC1CCN(C(=O)c2ccc3c(c2)NC(=O)/C(=C/c2ccccc2)S3)CC1,"inconclusive: 35.5 µM [inhibitor, single point]",–
Cc1ccc(S(=O)(=O)N2CCN(C(=O)C3CCCO3)CC2)cc1C (stereo not given),"inconclusive: 35.5 µM [inhibitor, single point]",–
COc1ccc(C2=CC(c3ccc(F)cc3)n3ncc(C(=O)Nc4ccc(C)cc4)c3N2)cc1 (stereo not given),"inconclusive: 35.5 µM [inhibitor, single point]",–
Cc1ccc(CN2CCc3nc(N4CCN(c5ncccn5)CC4)ncc3C2)cc1,"inconclusive: 14.1 µM [inhibitor, single point]",–
COc1ccc(N2CCN(CC(O)COC(c3ccc(F)cc3)c3ccc(F)cc3)CC2)cc1 (stereo not given),"inconclusive: 35.5 µM [inhibitor, single point]",–
O=c1oc(CCCO)cc2ccc(C#Cc3ccsc3)cc12,"inconclusive: 35.5 µM [inhibitor, single point]",–
CCc1ccc(OCC(=O)N2c3ccccc3CCc3ccccc32)cc1,"inconclusive: 35.5 µM [inhibitor, single point]",–
Cc1cccc(NC(=O)CCCn2c(C)c3cnn(-c4ccccc4)c(=O)c3c2C)c1C,"inconclusive: 3.16 µM [inhibitor, full curve]",–
CCOC(=O)C1CCN(c2ncnc3c2c(-c2ccccc2)cn3-c2cccc(C)c2)CC1,"inconclusive: 10 µM [inhibitor, single point]",–
COc1ccc(C)cc1NC(=O)c1nn(C)cc1Br,"inconclusive: 22.4 µM [inhibitor, single point]",–

SMILES,Potency,"activity, negative = inhibition"
CCN(c1ccccc1)S(=O)(=O)c1ccc(C(=O)Nc2nnc(-c3ccco3)o2)cc1,"inconclusive: 10 µM [inhibitor, partial curve, poor fit]",–
O=C(CCS(=O)(=O)c1cc2c(cc1Cl)NC(=O)CO2)NCc1ccc(F)cc1,–,inactive: 6.24%
COc1cc(/C=N/NC(=O)c2csc3c2CCCC3)cc(OC)c1O,–,inactive: -3.56%
Cc1ccc(Cn2c(C(=O)O)c(CNCc3ccccc3Cl)c3ccc(C)cc32)cc1,"inconclusive: 1.41 µM [inhibitor, partial curve, poor fit]",–
Cc1ccc(S(=O)(=O)c2c(N)n(NC(=O)c3ccccc3C)c3nc4ccccc4nc23)cc1,"inconclusive: 0.794 µM [inhibitor, partial curve, poor fit]",–
CCCC(=O)C1=C(O)C(C(=O)OC)C(C)(C)CC1=NC (stereo not given),"inconclusive: 6.31 µM [inhibitor, single point]",–
O=[N+]([O-])c1ccc(C=C2c3ccccc3-c3ccccc32)cc1,"inconclusive: 20 µM [inhibitor, single point]",–
CN1C/C(=C/c2ccsc2)C(=O)/C(=C/c2ccsc2)C1,"inconclusive: 22.4 µM [inhibitor, single point]",–
CCOc1ccc(N=Nc2c(N)[nH][nH]c2=O)cc1,"inconclusive: 35.5 µM [inhibitor, single point]",–
CN(C)/N=C/C=C1\CCC/C(=C\c2ccc(F)c(F)c2)C1=O,"inconclusive: 14.1 µM [inhibitor, single point]",–
CCOC(=O)C1=C(COC(=O)/C=C/c2cc(Br)ccc2F)NC(=O)NC1C (stereo not given),–,inactive: 0.59%
COc1cc2c(cc1OC)CN(C(=O)c1ccc([N+](=O)[O-])o1)CC2,active: 12.6 µM,–
O=C(CN(Cc1ccccc1)C1=NCCS1)c1ccccc1,–,inactive: -4.08%
CCOc1ccccc1NC(=O)C(Cc1ccccc1)NS(=O)(=O)c1ccc(Br)s1 (stereo not given),"inconclusive: 22.4 µM [inhibitor, single point]",–
COc1ccccc1NS(=O)(=O)c1cc(NC(=O)c2sccc2C)ccc1N1CCOCC1,"inconclusive: 1 µM [inhibitor, partial curve, poor fit]",–
Cc1cccc(NC(=O)CSCC(=O)NNC(=O)c2ccoc2C)c1,"inconclusive: 3.98 µM [inhibitor, single point]",–
COc1cc(C)cc2oc(=O)c(CC(=O)N3CCN(C(=O)C4COc5ccccc5O4)CC3)c(C)c12 (stereo not given),"inconclusive: 1.26 µM [inhibitor, full curve]",–
CC(=O)Nc1ccc(Nc2nc3ccccc3nc2NS(=O)(=O)c2ccc(Cl)c([N+](=O)[O-])c2)cc1,"inconclusive: 35.5 µM [inhibitor, single point]",–
CN(c1ccccc1)S(=O)(=O)c1cccc(NC(=O)c2ccc3ncsc3c2)c1,"inconclusive: 3.98 µM [inhibitor, full curve]",–
CCOC(=O)C1CCCN(C(=O)C2CCN(c3nnc(C)c4c(C)n(-c5ccccc5)nc34)CC2)C1 (stereo not given),"inconclusive: 22.4 µM [inhibitor, single point]",–
CC1CN(c2nn3c(=O)c4ccccc4nc3c3ccccc23)CC(C)O1 (stereo not given),"inconclusive: 1.12 µM [inhibitor, full curve, poor fit]",–

# Source: PubChem BioAssay AID588855 (National Center for Advancing Translational Sciences (NCATS), 2011)
